Reference: PubChem BioAssay AID1345082 (National Center for Advancing Translational Sciences (NCATS), 2018)
In all, about 94,000 compounds went through this assay and about 4,000 (4.3%) were called active. The shares of active, inactive and inconclusive entries below differ from those in the screen. The call rests on the fitted dose curve; in most records, active means well fitted inhibition curve with a large enough effect; inconclusive means small, poorly fitted or top-dose-only effect; inactive means no such curve, though single readings can be large or run the other way. Where the call is inconclusive, the potency comes from a doubtful curve fit.

assay: Cytotoxic Profiling in NIH 3T3 Cell Line of Diverse Libraries Using Quantitative High-Throughput Screening; details: NIH 3T3 viability, CellTiter-Glo ATP luminescence, 48-72 h; series mostly up to 96.7 µM; further: nearly all actives have a fitted effect of over 55% in size
Outline: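 ATP-dependent luminescence (CellTiter-Glo) served as the viability signal for NIH 3T3 cells treated with compound for 48 or 72 hr at 37 °C.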
Potency means the concentration at half of the fitted maximal effect; tags describe the fitted curve by direction and shape.

SMILES | Potency
CCCn1cc(-c2ccnc(NC3CCN(Cc4ccccn4)CC3)n2)c(C)n1 | inconclusive: 56.2 µM [inhibitor, partial curve, poor fit]
CCN1C[C@H]2COc3cc(OC)ccc3[C@H]2N(C(=O)c2ccccc2OC)CCC1=O | inconclusive: 70.8 µM [inhibitor, single point]
O=C(NC1CCN(c2cc(-c3ccc(Cl)cc3)[nH]n2)C1)c1ccncc1 (stereo not given) | inconclusive: 44.7 µM [inhibitor, partial curve, poor fit]
Cc1noc(C)c1[S+](=O)([O-])NC1CCN(c2ccc3nnc(-c4ccccc4)n3n2)CC1 | inconclusive: 50.1 µM [inhibitor, partial curve, poor fit]
COc1ccc(NC(=O)c2cc3n(n2)CC(c2ccc(Cl)cc2)OC3)cc1 (stereo not given) | inconclusive: 50.1 µM [inhibitor, partial curve, poor fit]
Cc1cccc(CCNC(=O)c2noc(-c3ccc4c(c3)OCO4)n2)c1 | inconclusive: 44.7 µM [inhibitor, partial curve, poor fit]
O=C(Cc1ccc(F)cc1)N1CCn2c(nn(-c3ccc(F)cc3)c2=O)C1 | inconclusive: 39.8 µM [inhibitor, partial curve, poor fit]
O=C(NCCc1ccco1)C1CC(=O)N(c2n[nH]c3ccccc23)C1 (stereo not given) | inactive
COCC(=O)N1CCN(c2ccc3nnc(-c4ccccc4)n3n2)CC1 | inactive
Cc1nc2ccc(C(=O)Nc3ccc4c(c3)C(=O)N3CCC[C@H]3C(=O)N4)cc2s1 | inactive
CCOC(=O)Cc1csc(NC(=O)C[C@H]2NC(=O)c3ccccc3NC2=O)n1 | inconclusive: 35.5 µM [inhibitor, single point]
O=C([C@@H]1C[C@H](F)CN1S(=O)(=O)c1ccccc1)N1CCc2ccccc2C1 | inactive
Cn1cc(CC(=O)N2CCCc3ncc(C(=O)Nc4cccnc4)cc32)c2ccccc21 | inconclusive: 79.4 µM [inhibitor, partial curve]
O=C(CCC1CCN(c2cc(NC3CC3)ncn2)CC1)Nc1ccccc1 | inactive
O=C(Cc1ccccc1)N1CCN(c2cc(-c3ccccc3)[nH]n2)CC1 | inconclusive: 44.7 µM [inhibitor, partial curve, poor fit]
COc1ccc(C(=O)NC2CCN(c3cc(-c4ccc(Cl)cc4)[nH]n3)C2)c(OC)c1 (stereo not given) | active: 35.5 µM
COc1ccc(CC2CCOC3(CCN(C(=O)c4cc5ccccc5[nH]4)CC3)C2)cc1 (stereo not given) | inconclusive: 17.8 µM [inhibitor, full curve]
Cc1ccc(-c2cc3c(=O)n(CCNC(=O)Cc4ccsc4)ccn3n2)cc1C | inconclusive: 44.7 µM [inhibitor, partial curve, poor fit]
O=C(Cn1nc2c(cc1=O)CCCCC2)NC1CCCc2c1[nH]c1ccccc21 (stereo not given) | inconclusive: 50.1 µM [inhibitor, partial curve, poor fit]
CCOc1ccc(C2Cn3nnc(-c4nc(-c5ccncc5)no4)c3CO2)cc1 (stereo not given) | inactive
CNC(=O)c1cc(C)nc2onc(C3CCN(C(=O)c4ccncc4)C3)c12 (stereo not given) | inactive
COc1ncccc1-c1ccnc(-c2nnc(C)n2-c2ccccc2)c1 | inconclusive: 89.1 µM [inhibitor, partial curve]

SMILES | Potency
CCCc1noc(-c2cccn3c(CNC(=O)c4ccc(C)cc4)nnc23)n1 | inactive
O=C(Nc1cccc(F)c1)N1CCC(Oc2ccccc2-c2nc(-c3ccncc3)no2)C1 (stereo not given) | inconclusive: 50.1 µM [inhibitor, partial curve, poor fit]
CN(C)[S+](=O)([O-])c1ccc2c(c1)OCCN(Cc1ccncc1)C2 | inconclusive: 56.2 µM [inhibitor, partial curve, poor fit]
COc1ccc(CN2CCC3(CC2)C(=NC2CCCC2)NC(=O)N3c2cc(F)cc(F)c2)cc1 | inactive
Cc1ccc([S+](=O)([O-])N2CCCCC23Cc2ccccc2NC3=O)cc1 (stereo not given) | inconclusive: 10 µM [inhibitor, full curve, poor fit]
COc1ccc(-c2cc(C[C@@H]3CC[C@H](O)[C@@H](CN(C)C)O3)no2)cc1 | inactive
O=C1COc2ccc(-c3ccncc3)nc2CN1Cc1ccc(C(F)(F)F)cc1 | inconclusive: 44.7 µM [inhibitor, partial curve, poor fit]
CN1CCCC[C@]2(C[C@H](C(=O)O)[C@H](c3ccccc3)N2C(=O)Cc2ccc(F)cc2)C1=O | inconclusive: 56.2 µM [inhibitor, partial curve, poor fit]
COc1ccc(C(=O)NCCc2ncc(C)n2C2CCC2)c(OC)n1 | inconclusive: 56.2 µM [inhibitor, partial curve, poor fit]
O=C(C1CCN(c2nccc(Nc3ccccc3F)n2)CC1)N1CCCCC1 | inconclusive: 39.8 µM [inhibitor, partial curve, poor fit]
CN1C(=O)C2(CCN(Cc3ccc(C#N)cc3)C2)c2ccccc21 (stereo not given) | inconclusive: 56.2 µM [inhibitor, partial curve, poor fit]
Cn1nc(C(=O)N2CCCC(CN3CCCC3)CC2)c2ccccc21 (stereo not given) | inactive
COc1ccc(C(=O)N2CCN(c3cc(-c4cccs4)[nH]n3)CC2)cc1 | inconclusive: 31.6 µM [inhibitor, partial curve]
CN(C)c1ccc(C(=O)NC2CCCN(c3cc(-c4ccc(F)cc4)[nH]n3)C2)cc1 (stereo not given) | inconclusive: 44.7 µM [inhibitor, partial curve, poor fit]
O=C(Cc1cccc(Cl)c1)N1CCCC(C(=O)N2CCC(c3ccccc3)CC2)C1 (stereo not given) | inconclusive: 56.2 µM [inhibitor, partial curve, poor fit]
CCOc1ccc(C2NC(=O)N(CCC(C)C)C3=C2C(=O)OC3)cc1 (stereo not given) | inactive
COC[C@@H]1CN(S(=O)(=O)c2ccc(C(C)C)cc2)C[C@H]1c1ccccn1 | inconclusive: 50.1 µM [inhibitor, partial curve, poor fit]
COCCOC1CCN(C(C(=O)O)c2cc(C)c(OC)c(C)c2)CC1 (stereo not given) | inactive
CC(=O)NC1(C)CCN(Cc2ccc(-c3cccc(C(F)(F)F)c3)cc2)C1 (stereo not given) | active: 44.7 µM
Cc1ncoc1C(=O)N1CC(c2noc(C3CCCN3CC3CC3)n2)C1 (stereo not given) | inactive
CC(C)N1Cc2cc(C(=O)Nc3cccc4c3CCCC4)sc2C1 | inconclusive: 44.7 µM [inhibitor, partial curve, poor fit]
O=C(NCc1cccc(Cl)c1)C1CN(c2ccc(Cl)cc2)C(=O)N1 (stereo not given) | inconclusive: 39.8 µM [inhibitor, partial curve]

SMILES | Potency
COc1cc(NC(=O)NC[C@H]2O[C@@H](CO)[C@@H](O)[C@H]2N2CCC(C)CC2)cc(OC)c1 | inactive
C[S+](=O)([O-])NC1CCN(c2nccc(Nc3ccccc3F)n2)CC1 | inconclusive: 56.2 µM [inhibitor, partial curve, poor fit]
O=C(NCc1ccccn1)c1cn2cc(-c3cccc(C(F)(F)F)c3)sc2n1 | inactive
CCN1CCN(CCCNC(=O)C2CCCCC(=O)N2Cc2cccc(OC)c2)CC1 (stereo not given) | inactive
O=[S+]1([O-])NCC2(CCN(Cc3cccc4ccccc34)CC2)Nc2ccccc21 | inconclusive: 50.1 µM [inhibitor, single point]
CCOC(=O)C1CCN(C(=O)c2ccc3nnc(-c4ccoc4)n3c2)CC1 | inactive
O=C(CN1CCCc2nc(C3CC3)ncc2C1=O)NC1CCCCC1 | inactive
CC(=O)Nc1ccc(C(=O)NC2CCN(c3cc(-c4ccc(F)cc4)[nH]n3)C2)cc1 (stereo not given) | inconclusive: 79.4 µM [inhibitor, single point]
Cc1ccc(OCc2ccc(C(=O)N3C[C@H](C4CC4)[C@@H](N)C3)cc2)cc1 | inconclusive: 44.7 µM [inhibitor, partial curve, poor fit]
CC(=O)N1CCC(N2CCOC[C@H]2c2ncc(-c3cccnc3)[nH]2)CC1 | inactive
Cc1ccc(C2Cn3cnc(C(=O)N4CCC(C(=O)NC(C)c5ccccc5)CC4)c3CO2)cc1 (stereo not given) | inactive
CN1CC(=O)N(C2CCCCC2)Cc2c(NCCO)ncnc21 | inactive
CNC(=O)[C@H]1CN(C(=O)OCc2ccccc2)[C@]2(C)C(=O)N(CCOC)c3ccccc3[C@H]12 | inactive
O=C(Cn1nc(-c2cccs2)ccc1=O)NC1CCCc2c1[nH]c1ccccc21 (stereo not given) | inactive
Cc1cccc(-c2cnc3n[nH]c(-c4ccc5c(c4)OCO5)c3n2)c1 | inconclusive: 56.2 µM [inhibitor, partial curve, poor fit]
O=C(c1ccc(Cl)nc1)N1CCN(c2nccc(Nc3ccccc3Cl)n2)CC1 | inconclusive: 50.1 µM [inhibitor, partial curve, poor fit]
COc1ccc(-c2cc(C(=O)N3CCOCC3)c3c(C4CCNC4)nn(C)c3n2)cc1 (stereo not given) | inactive
Cc1noc(C)c1CCC(=O)N1CCCC(CCc2cccc(F)c2)C1 (stereo not given) | inconclusive: 39.8 µM [inhibitor, partial curve]
Cc1cnc(-c2ccccc2)n1C1CCCN(C(=O)Nc2ccccc2F)C1 (stereo not given) | inconclusive: 35.5 µM [inhibitor, partial curve]
CCCCn1c(=O)c(C(=O)N2CCN(C(=O)c3ccc(OC)cc3)CC2)nc2cccnc21 | inconclusive: 50.1 µM [inhibitor, partial curve, poor fit]
CCc1ccc(C2CC(C(=O)NCc3ccccc3)CN(C(=O)c3ccoc3)C2)cc1 (stereo not given) | inconclusive: 44.7 µM [inhibitor, partial curve, poor fit]
